No constants are given. Whether binding was seen depends on the method and setting. For part of these data: In cells and extracts the contact can be indirect. Some binding calls cover weakened binding; strength is not graded here. For part of these data: Tags and fused reporters may be left off the sequences shown.

Sequences of proteins named here, by UniProt entry; tags and fusion partners are left off. A change or cut given only in a name is not applied to a line headed by its entry. Residues count along the entry.
UniProt Q13887: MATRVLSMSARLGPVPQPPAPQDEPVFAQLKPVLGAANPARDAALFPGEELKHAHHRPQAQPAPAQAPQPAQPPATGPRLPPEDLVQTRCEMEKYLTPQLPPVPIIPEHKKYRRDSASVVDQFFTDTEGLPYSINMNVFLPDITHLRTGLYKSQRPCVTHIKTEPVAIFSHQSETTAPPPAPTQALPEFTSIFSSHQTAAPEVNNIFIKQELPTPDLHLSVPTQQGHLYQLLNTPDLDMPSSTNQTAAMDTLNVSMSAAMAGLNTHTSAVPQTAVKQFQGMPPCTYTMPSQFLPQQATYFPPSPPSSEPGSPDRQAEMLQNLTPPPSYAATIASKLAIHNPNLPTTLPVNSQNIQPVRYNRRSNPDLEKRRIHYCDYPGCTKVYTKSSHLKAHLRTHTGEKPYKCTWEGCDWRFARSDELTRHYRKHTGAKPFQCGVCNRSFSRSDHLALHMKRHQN
Flag-KLF5-ΔC: residues 1-245 of Q13887
UniProt Q13418: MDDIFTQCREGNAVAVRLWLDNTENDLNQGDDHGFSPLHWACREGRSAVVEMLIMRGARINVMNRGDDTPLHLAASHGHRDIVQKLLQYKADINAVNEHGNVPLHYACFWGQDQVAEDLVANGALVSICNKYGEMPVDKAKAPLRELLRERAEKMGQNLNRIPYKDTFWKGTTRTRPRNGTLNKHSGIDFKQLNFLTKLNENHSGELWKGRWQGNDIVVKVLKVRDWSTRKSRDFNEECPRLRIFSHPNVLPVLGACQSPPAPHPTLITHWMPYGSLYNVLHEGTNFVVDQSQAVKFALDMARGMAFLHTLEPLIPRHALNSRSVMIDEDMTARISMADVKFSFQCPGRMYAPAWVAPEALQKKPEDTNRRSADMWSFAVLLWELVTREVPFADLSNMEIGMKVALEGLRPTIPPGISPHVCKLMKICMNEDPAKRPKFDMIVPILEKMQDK

In test [1] the target is T1, α-Catulin (yeast two-hybrid bait) (UniProt Q9UBT7).
T1 sequence: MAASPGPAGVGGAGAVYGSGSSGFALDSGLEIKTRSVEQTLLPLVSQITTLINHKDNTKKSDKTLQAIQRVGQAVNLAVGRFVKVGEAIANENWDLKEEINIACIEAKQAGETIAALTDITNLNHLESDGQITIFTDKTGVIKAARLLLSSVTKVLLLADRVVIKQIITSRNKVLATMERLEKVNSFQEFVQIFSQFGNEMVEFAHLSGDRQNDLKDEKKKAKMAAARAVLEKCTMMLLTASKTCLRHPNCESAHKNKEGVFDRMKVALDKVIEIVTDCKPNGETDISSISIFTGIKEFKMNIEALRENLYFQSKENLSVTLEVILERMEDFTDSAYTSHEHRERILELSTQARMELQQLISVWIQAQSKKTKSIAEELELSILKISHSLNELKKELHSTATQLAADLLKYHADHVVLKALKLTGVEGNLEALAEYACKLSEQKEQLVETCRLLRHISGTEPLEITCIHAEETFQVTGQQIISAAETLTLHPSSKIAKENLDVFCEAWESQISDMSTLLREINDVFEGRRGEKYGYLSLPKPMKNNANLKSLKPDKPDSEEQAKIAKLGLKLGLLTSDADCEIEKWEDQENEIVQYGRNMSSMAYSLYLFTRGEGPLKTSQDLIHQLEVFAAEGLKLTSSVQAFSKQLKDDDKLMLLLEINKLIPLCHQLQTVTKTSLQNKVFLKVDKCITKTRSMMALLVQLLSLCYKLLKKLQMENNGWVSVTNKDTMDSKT
Put plainly: two-hybrid; S. cerevisiae strain AH109; α-Catulin as bait; growth on histidine-deficient plates and β-galactosidase activity.

The target in test [2] is T2, endogenous α-Catulin (human (endogenous in CL1-5)) (UniProt Q9UBT7).
T2 sequence: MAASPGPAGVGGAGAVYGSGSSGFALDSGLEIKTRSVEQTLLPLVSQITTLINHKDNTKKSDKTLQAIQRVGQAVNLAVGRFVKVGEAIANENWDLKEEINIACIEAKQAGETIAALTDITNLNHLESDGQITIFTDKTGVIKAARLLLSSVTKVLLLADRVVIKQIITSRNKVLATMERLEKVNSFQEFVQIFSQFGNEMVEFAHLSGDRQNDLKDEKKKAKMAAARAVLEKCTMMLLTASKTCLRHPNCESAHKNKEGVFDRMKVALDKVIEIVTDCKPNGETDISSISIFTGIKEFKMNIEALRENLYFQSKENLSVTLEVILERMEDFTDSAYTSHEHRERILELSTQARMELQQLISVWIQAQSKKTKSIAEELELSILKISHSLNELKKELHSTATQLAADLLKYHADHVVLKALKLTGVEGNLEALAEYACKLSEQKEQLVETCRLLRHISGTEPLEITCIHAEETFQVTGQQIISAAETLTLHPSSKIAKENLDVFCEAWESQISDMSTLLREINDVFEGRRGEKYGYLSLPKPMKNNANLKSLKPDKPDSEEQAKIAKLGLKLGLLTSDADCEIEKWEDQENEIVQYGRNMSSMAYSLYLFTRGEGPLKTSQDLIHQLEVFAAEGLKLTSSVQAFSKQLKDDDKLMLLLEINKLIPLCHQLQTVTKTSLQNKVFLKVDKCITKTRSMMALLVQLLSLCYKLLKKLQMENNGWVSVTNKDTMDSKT
Put plainly: co-IP; α-Catulin immunoprecipitated from CL1-5 cells treated with 2 μM OSU-T315 (ILK inhibitor); Western blot. In general terms: Immunoblotting shows a protein as a band on a membrane.

Test [3] concerns the target T2, endogenous α-Catulin (human (endogenous in CL1-5)). Description: co-IP; endogenous proteins; CL1-5 lysate (M-PER), 1 mg lysate with 1 μg anti-α-Catulin or anti-KLF5 antibody, protein A magnetic beads, 4 °C; Western blot.
The target of another test is T3, Flag-α-Catulin wild-type (UniProt Q9UBT7).
T3 sequence: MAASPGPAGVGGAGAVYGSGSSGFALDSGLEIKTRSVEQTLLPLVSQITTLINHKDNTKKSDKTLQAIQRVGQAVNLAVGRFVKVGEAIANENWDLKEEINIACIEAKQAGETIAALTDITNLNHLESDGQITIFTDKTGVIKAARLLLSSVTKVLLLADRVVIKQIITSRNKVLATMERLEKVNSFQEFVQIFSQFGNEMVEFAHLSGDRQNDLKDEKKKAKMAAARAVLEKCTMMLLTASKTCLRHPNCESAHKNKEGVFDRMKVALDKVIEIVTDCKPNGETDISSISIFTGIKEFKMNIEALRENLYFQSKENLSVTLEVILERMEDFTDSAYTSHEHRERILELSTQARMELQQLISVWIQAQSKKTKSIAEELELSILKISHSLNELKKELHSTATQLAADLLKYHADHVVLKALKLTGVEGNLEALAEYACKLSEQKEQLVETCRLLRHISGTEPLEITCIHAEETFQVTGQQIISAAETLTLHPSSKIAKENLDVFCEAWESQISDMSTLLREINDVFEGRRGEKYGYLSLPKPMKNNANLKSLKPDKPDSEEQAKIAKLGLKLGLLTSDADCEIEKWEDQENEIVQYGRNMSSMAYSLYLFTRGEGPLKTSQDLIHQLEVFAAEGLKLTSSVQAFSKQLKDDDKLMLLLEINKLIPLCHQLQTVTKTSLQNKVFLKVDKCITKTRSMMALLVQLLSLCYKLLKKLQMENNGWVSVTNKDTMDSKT
Put plainly: co-IP; CL1-0 cells cotransfected with HA-KLF5 full length and Flag-α-Catulin wild-type or fragments; anti-Flag immunoprecipitation, blot with anti-KLF5.

The target in test [4] is T4, Flag-α-Catulin-ΔC (1-260) (UniProt Q9UBT7).
T4 sequence: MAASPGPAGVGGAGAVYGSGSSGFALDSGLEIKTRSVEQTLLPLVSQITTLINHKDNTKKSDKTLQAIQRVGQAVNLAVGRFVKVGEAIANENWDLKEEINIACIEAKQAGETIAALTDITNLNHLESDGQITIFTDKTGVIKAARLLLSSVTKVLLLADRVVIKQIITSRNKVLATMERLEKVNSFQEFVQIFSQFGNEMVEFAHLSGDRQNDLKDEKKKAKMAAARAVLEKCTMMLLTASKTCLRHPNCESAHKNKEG
Described as above.

Another test has as its target Flag-KLF5 wild-type (UniProt Q13887). Description: co-IP; CL1-0 cells cotransfected with α-Catulin-GFP and Flag-KLF5 wild-type or truncated mutants; anti-Flag immunoprecipitation, blot with anti-α-Catulin.
A further test deals with Flag-KLF5-ΔC (UniProt Q13887). Described as above.

For the molecule “KLF5 (yeast two-hybrid prey) (from UniProt Q13887 1-457)”, the binding entry in test [1] is given as “binds”. As for “endogenous KLF5 (from UniProt Q13887 1-457)”, the binding entry in test [2] is reported as “no binding (condition: with 2 μM OSU-T315)”; in test [3], “binds”. On to “HA-tagged full-length KLF5 (from UniProt Q13887 1-457)”, for which the binding result (in the test with Flag-α-Catulin wild-type; in test [4]) was “binds” each time.

Regarding “integrin-linked kinase (ILK), endogenous (from UniProt Q13418 1-452) (enzyme)”, the binding entry is “no binding (condition: with 2 μM OSU-T315)” in test [2] and “binds” in test [3].

B1: GFP-tagged full-length α-Catulin (protein, UniProt Q9UBT7 1-734)
chain: MAASPGPAGVGGAGAVYGSGSSGFALDSGLEIKTRSVEQTLLPLVSQITTLINHKDNTKKSDKTLQAIQRVGQAVNLAVGRFVKVGEAIANENWDLKEEINIACIEAKQAGETIAALTDITNLNHLESDGQITIFTDKTGVIKAARLLLSSVTKVLLLADRVVIKQIITSRNKVLATMERLEKVNSFQEFVQIFSQFGNEMVEFAHLSGDRQNDLKDEKKKAKMAAARAVLEKCTMMLLTASKTCLRHPNCESAHKNKEGVFDRMKVALDKVIEIVTDCKPNGETDISSISIFTGIKEFKMNIEALRENLYFQSKENLSVTLEVILERMEDFTDSAYTSHEHRERILELSTQARMELQQLISVWIQAQSKKTKSIAEELELSILKISHSLNELKKELHSTATQLAADLLKYHADHVVLKALKLTGVEGNLEALAEYACKLSEQKEQLVETCRLLRHISGTEPLEITCIHAEETFQVTGQQIISAAETLTLHPSSKIAKENLDVFCEAWESQISDMSTLLREINDVFEGRRGEKYGYLSLPKPMKNNANLKSLKPDKPDSEEQAKIAKLGLKLGLLTSDADCEIEKWEDQENEIVQYGRNMSSMAYSLYLFTRGEGPLKTSQDLIHQLEVFAAEGLKLTSSVQAFSKQLKDDDKLMLLLEINKLIPLCHQLQTVTKTSLQNKVFLKVDKCITKTRSMMALLVQLLSLCYKLLKKLQMENNGWVSVTNKDTMDSKT
Take B1: the binding entry is “binds” with Flag-KLF5 wild-type and “no binding” with Flag-KLF5-ΔC.

The values are drawn from publication PMC8771551.
